Data published in PubChem BioAssay AID1745845 (National Center for Advancing Translational Sciences (NCATS), 2022).
Values joined by “and” are separate entries in the source; they are usually repeats but may differ in a detail not shown here. Identical values can stand only once. Screen size: about 360,000 compounds; about 2,600 (0.72%) were called active. This list was built around the results that the source calls inconclusive (neither active nor inactive); the mix of calls is not that of the screen. The call rests on the fitted dose curve; in most records, active means well fitted inhibition curve with a large enough effect; inconclusive means small, poorly fitted or top-dose-only effect; inactive means no such curve, though single readings can be large or run the other way. Potencies of inconclusive entries are doubtful fits and often do not repeat.

Experiment: Primary qHTS for Inhibitors of ATXN expression; further: nearly all actives have a fitted effect of over 55% in size
Conditions: HEK-293 ATXN2-luciferase reporter, luminescence, 24 h; activity change, negative = inhibition: at 57 µM (top of the series)
How it was run: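 ATXN2-luciferase reporter cells (luciferase flanked by upstream and downstream ATXN2 gene portions) were treated 24 h at 37 °C with compounds at up to 57 uM. SteadyGlo luminescence gave expression; GF-AFC fluorescence gave viability.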
On the % scale 0 is the no-effect control and ±100 the full control effect; potency means the concentration at half of the fitted maximal effect; tags describe the fitted curve by direction and shape.

For `Cc1cc(C)n(-c2nnc(NC(C)(C)C)nn2)n1`, which “activity change, negative = inhibition” value is on record?
The value was inactive: 61.2%.

With `OCCN(Cc1ccccc1)C(=S)Nc1ccc(F)cc1` as the molecule, how does the “activity change, negative = inhibition” value read?
Its value is inactive: -7.32%.

For `C[C@H](CO)N1C[C@H](C)[C@@H](CN(C)Cc2ccc(Cl)c(Cl)c2)Oc2c(NC(=O)CCC(F)(F)F)cccc2C1=O`, which Potency is on record?
The Potency was inconclusive: 28.2 µM [inhibitor, single point].

With `O=C(NCC(c1ccco1)N1CCc2ccccc2C1)c1ccccc1` (stereo not drawn) as the molecule, how does the “activity change, negative = inhibition” value read?
The value was inactive: 8.34%.

Which Potency does the source give for `CCc1ccc2c(c1)C1(NN=C(c3ccccc3)S1)C(=O)N2` (stereo not drawn) here?
Its Potency is inconclusive: 5.01 µM [inhibitor, partial curve, poor fit].

For `Cc1cc(Cl)ccc1NC(=O)C1CCCN1S(=O)(=O)c1ccc2c(c1)CCCC(=O)N2` (stereo not drawn), which “activity change, negative = inhibition” value is on record?
The value was inactive: -15%.

With `CCCCCCCCCCCCCCCC[N+](C)(C)CC` as the molecule, how does the Potency read?
The Potency was active: 17.8 µM and active: 14.1 µM.

For `CNC(=S)N1CCN(c2ccc(Cl)c(Cl)c2)CC1`, which “activity change, negative = inhibition” value is on record?
The value was inactive: -34.9%.

Which “activity change, negative = inhibition” value does the source give for `CN(C(=O)CSc1nnc(-c2cccs2)o1)C1CCS(=O)(=O)C1` (stereo not drawn) here?
The value was inactive: 15.3%.

For `CCCC(=O)Nc1ccc(C(=O)Nc2cc(C(F)(F)F)ccc2Cl)cc1`, which Potency is on record?
The Potency was inconclusive: 22.4 µM [inhibitor, partial curve, poor fit].

Which Potency does the source give for `COc1cc2c(cc1NC(=O)c1cc(-c3ccncc3)nc3ccccc13)oc1ccccc12` here?
The Potency was inconclusive: 3.16 µM [inhibitor, single point].

Which “activity change, negative = inhibition” value does the source give for `Cc1ccc(N2C(=O)C3C4C=CC(CNC(=S)N5CCN(c6cccc(C)c6)C(C)C5)(O4)C3C2=O)cc1` (stereo not drawn) here?
Its value is inactive: -9.95%.

Which Potency does the source give for `CCOc1cc(/C=C2\CN(C)C/C(=C\c3ccc(O)c(OCC)c3)C2=O)ccc1O` here?
The Potency was active: 3.16 µM.

Which “activity change, negative = inhibition” value does the source give for `O=C(NN1C(=O)c2ccccc2NC1c1ccco1)c1ccccc1` (stereo not drawn) here?
Its value is inactive: 15.5%.

For `CCN1CCN(CCNC(=O)c2ccc(/C=C3/Sc4ccccc4N(Cc4cccc(C)c4)C3=O)cc2)CC1`, which Potency is on record?
The Potency was inconclusive: 15.8 µM [inhibitor, partial curve].

With `CCOC(=O)N1CCC(NC(=O)C2CCCN(Cc3nc(-c4ccc(CC)cc4)oc3C)C2)CC1` (stereo not drawn) as the molecule, how does the Potency read?
The Potency was inconclusive: 7.94 µM [inhibitor, partial curve, poor fit].

With `COc1ccc(NC(=O)CN(C)C(=O)c2ccccc2CCc2ccccc2)cc1` as the molecule, how does the “activity change, negative = inhibition” value read?
Its value is inactive: 8.85%.

Which Potency does the source give for `CCCN1C/C(=C/c2cccc([N+](=O)[O-])c2)C(=O)/C(=C/c2cccc([N+](=O)[O-])c2)C1` here?
The Potency was inconclusive: 3.55 µM [inhibitor, full curve, poor fit].

With `COc1ccccc1CN(C)C(=O)c1cc(-c2cccs2)nc2ccccc12` as the molecule, how does the Potency read?
The Potency was inconclusive: 14.1 µM [inhibitor, single point].

For `CN(C)/C=C/C(=O)c1nnn(C2CCCCC2)c1NC1CCCCC1`, which Potency is on record?
Its Potency is inconclusive: 22.4 µM [inhibitor, single point].

For `O=C1C2C3C=CC(CC3)C2C(=O)N1c1ccc(Cl)cc1Cl` (stereo not drawn), which activity change, negative = inhibition is on record?
The activity change, negative = inhibition was inconclusive: -47.1% [inhibitor].

With `C=C1C(=O)C23CCC4C(C)(C(=O)OC)CCCC4(C)C2CCC1(O)C3` (stereo not drawn) as the molecule, how does the Potency read?
Its Potency is inconclusive: 5.32 µM [inhibitor, full curve, poor fit].

For `Nc1ncc(-c2ccccc2)n1CC1CCCO1` (stereo not drawn), which “activity change, negative = inhibition” value is on record?
The value was inactive: -2.07%.

For `CCCCCCC(=O)Nc1cc2nc3c(nc2cc1C)c(=O)n(C)c(=O)n3C`, which “activity change, negative = inhibition” value is on record?
Its value is inactive: 6.95%.

For `Cc1ccc(CCNC(=O)C(C)n2nc(C)c3c(C)n(-c4ccc(C)cc4)nc3c2=O)cc1` (stereo not drawn), which Potency is on record?
Its Potency is inconclusive: 12.6 µM [inhibitor, partial curve].

With `CCOC(=O)N1CCC(NC(=O)c2ccc3c(c2)N(Cc2ccc(F)cc2)C(=O)c2ccccc2S3=O)CC1` (stereo not drawn) as the molecule, how does the “activity change, negative = inhibition” value read?
Its value is inactive: -29.2%.

With `O=C(NNC(=S)NCc1ccccc1)c1cccnc1` as the molecule, how does the “activity change, negative = inhibition” value read?
The value was inactive: 2.95%.

For `Cc1cccnc1Nc1nc(-c2ccccn2)cs1`, which Potency is on record?
The Potency was inconclusive: 3.98 µM [inhibitor, full curve].

With `Cc1ccc(S(=O)(=O)N2CCC(C(=O)NNC(=O)c3ccccc3O)CC2)cc1` as the molecule, how does the Potency read?
The Potency was inconclusive: 12.6 µM [inhibitor, partial curve, poor fit].

With `COC(=O)c1c(C)oc2ccc(N(C(=O)Oc3ccccc3)S(=O)(=O)c3ccc(Cl)c([N+](=O)[O-])c3)cc12` as the molecule, how does the Potency read?
Its Potency is inconclusive: 31.6 µM [inhibitor, single point].

Which Potency does the source give for `CC1Sc2ccc(S(=O)(=O)N3CCC(C(=O)Nc4cccc(Cl)c4)CC3)cc2NC1=O` (stereo not drawn) here?
The Potency was inconclusive: 25.1 µM [inhibitor, single point].

With `CCCCOCCCNc1ncnc2c1[nH]c1ccccc12` as the molecule, how does the Potency read?
The Potency was inconclusive: 14.1 µM [inhibitor, partial curve].

Which Potency does the source give for `CN(C)c1ccc(-c2cc(O)c3ncccc3c2)cc1` here?
Its Potency is inconclusive: 31.6 µM [inhibitor, partial curve, poor fit].

For `COc1ccc(C)cc1Nc1c2c(nc3ccccc13)CCC2`, which Potency is on record?
Its Potency is inconclusive: 7.94 µM [inhibitor, partial curve].

What about the activity change, negative = inhibition of the same molecule?
The activity change, negative = inhibition was inconclusive: -65.3% [inhibitor].

For `Cc1ccc(NC(=S)NCc2ccc(Cl)cc2)c(C)c1`, which Potency is on record?
The Potency was inconclusive: 31.6 µM [inhibitor, single point].

For `CC(C)C[C@H](CC(=O)O)C(=O)N[C@@H](Cc1c[nH]c2ccccc12)C(=O)N[C@@H](C)c1ccccc1`, which Potency is on record?
The Potency was inconclusive: 48.5 µM [inhibitor, single point].

For `CC(=O)c1ccc(C(=O)Nc2nnc(-c3ccc(Cl)cc3)o2)cc1`, which Potency is on record?
The Potency was inconclusive: 31.6 µM [inhibitor, single point].

For `CN(C)C1=NC[C@H](Cc2ccccc2)N1CC1CCCC1`, which “activity change, negative = inhibition” value is on record?
Its value is inactive: -20.8%.

With `CC[C@@H](C)[C@H](NC(=O)[C@H](CC1CCCCC1)NC(=O)c1ccno1)C(=O)N1CCC2(CCc3ccccc32)CC1` as the molecule, how does the Potency read?
Its Potency is inconclusive: 17.2 µM [inhibitor, partial curve].

For `COc1ccc(OC)c(C2C(C(=O)Nc3ccc(C)cc3)=C(C)Nc3nnnn32)c1` (stereo not drawn), which “activity change, negative = inhibition” value is on record?
Its value is inactive: -14.7%.

With `COc1ccc(CCNC(=O)/C(C#N)=C/c2cccc(OCc3ccccc3)c2)cc1OC` as the molecule, how does the “activity change, negative = inhibition” value read?
The value was inactive: -20.5%.

For `CC(C)CCNC(=O)Cn1nc(N2CCN(c3ccccc3)CC2)ccc1=O`, which “activity change, negative = inhibition” value is on record?
The value was inactive: -7.37%.

Which “activity change, negative = inhibition” value does the source give for `Cc1ccccc1Cn1c2ccccc2c2cnn(CC(=O)NC3CCCCCC3)c(=O)c21` here?
The value was inactive: -9.76%.

With `COc1ccc(Br)cc1Cn1nnc(C(=O)Nc2cccc(SC)c2)c1N` as the molecule, how does the Potency read?
Its Potency is inconclusive: 22.4 µM [inhibitor, partial curve, poor fit].

Which “activity change, negative = inhibition” value does the source give for `O=C1N[C@@H](Cc2cn(S(=O)(=O)c3ccc([N+](=O)[O-])cc3)c3ccccc23)C(=O)N[C@H]1Cc1ccccc1` here?
Its value is inactive: -33.5%.

Which Potency does the source give for `Cc1cc(/C=C2\SC(=Nc3ccc(F)cc3)NC2=O)c(C)n1-c1ccc(S(N)(=O)=O)cc1` here?
Its Potency is inconclusive: 28.2 µM [inhibitor, single point].

Which Potency does the source give for `O=C(CSc1nc2ccccc2n1Cc1cccc(F)c1)NCc1ccccc1` here?
The Potency was inconclusive: 39.8 µM [inhibitor, single point].

For `OC[C@@H]1[C@@H](c2ccc(F)cc2)C(c2cccc(Cl)c2)=NN1c1ccccc1`, which Potency is on record?
Its Potency is inconclusive: 39.8 µM [inhibitor, single point].

For `O=C(CCc1ccc(S(=O)(=O)N2CCOCC2)cc1)Nc1ccc2ccccc2c1`, which Potency is on record?
Its Potency is inconclusive: 14.1 µM [inhibitor, partial curve, poor fit].

Which Potency does the source give for `CC(/C=C/c1ccccc1)=N/NC(=O)c1cc([N+](=O)[O-])cc([N+](=O)[O-])c1` here?
Its Potency is inconclusive: 8.91 µM [inhibitor, partial curve, poor fit].

Which Potency does the source give for `O=C(NCCN1CCC(n2c(=O)[nH]c3ccccc32)CC1)c1ccc(Cl)c(Cl)c1` here?
The Potency was active: 17.8 µM.

With `O=C(CCN1C(=O)/C(=C/c2ccccc2F)SC1=S)N[C@@H](CO)Cc1ccccc1` as the molecule, how does the Potency read?
The Potency was inconclusive: 39.8 µM [inhibitor, single point].

Which Potency does the source give for `COc1cc(C(=O)NNC(=S)NC(=O)c2ccc(Cl)cc2)cc(OC)c1OC` here?
Its Potency is inconclusive: 39.8 µM [inhibitor, single point].

With `COc1ccc2nc(C)cc(NCc3cccc(C(F)(F)F)c3)c2c1` as the molecule, how does the Potency read?
The Potency was inconclusive: 39.8 µM [inhibitor, single point].

For `O=C(CN(C(=O)C1COc2ccccc2O1)c1ccccc1)NCC1CCCO1` (stereo not drawn), which “activity change, negative = inhibition” value is on record?
Its value is inactive: 6.62%.

For `C=CCN(CC=C)Cc1cc(=O)oc2ccc3ccccc3c12`, which “activity change, negative = inhibition” value is on record?
Its value is inactive: -18.9%.

Which Potency does the source give for `CCOC(=O)c1[nH]c(C)c(C(=O)N2CCN(c3cccc(Cl)c3)CC2)c1C` here?
The Potency was inconclusive: 25.1 µM [inhibitor, partial curve, poor fit].

For `O=C(Nc1cccc(S(=O)(=O)C(F)F)c1)c1ccc(Cl)c(S(=O)(=O)N2CCOCC2)c1`, which Potency is on record?
The Potency was inconclusive: 22.4 µM [inhibitor, partial curve, poor fit].

With `Oc1ccc(N2CCN(Cc3nc4ccccc4[nH]3)CC2)cc1` as the molecule, how does the “activity change, negative = inhibition” value read?
The value was inactive: -29.4%.

With `CCC(CC)NCC(O)COc1ccc(Br)cc1` (stereo not drawn) as the molecule, how does the Potency read?
The Potency was inconclusive: 37.7 µM [inhibitor, single point].

Which “activity change, negative = inhibition” value does the source give for `CC(=O)Nc1ccc(NS(=O)(=O)c2c(C(=O)N3CCCCCC3)c(C)n(C)c2C)cc1` here?
Its value is inactive: 1.47%.

Which Potency does the source give for `CN(C)CCCN(C(=O)c1ccc2c(c1)CCCC2)c1nc2ccc(Cl)cc2s1` here?
Its Potency is inconclusive: 39.8 µM [inhibitor, single point].

For `CCOC(=O)Cn1nc(-c2ccccc2)c2cnc3ccc(C)cc3c21`, which Potency is on record?
Its Potency is inconclusive: 29.9 µM [inhibitor, partial curve, poor fit].

Which Potency does the source give for `Cc1ccc(-n2ncc(C(=O)NCc3ccc4c(c3)OCO4)c2C2CCN(C(=O)OC(C)(C)C)CC2)c(C)c1` here?
Its Potency is inconclusive: 39.8 µM [inhibitor, single point].

For `CCc1c(C)nc2ncnn2c1N1CCCC(C(=O)Nc2cc(F)ccc2C)C1` (stereo not drawn), which “activity change, negative = inhibition” value is on record?
Its value is inactive: -6.69%.

Which Potency does the source give for `O=[N+]([O-])c1ccc(-c2nc(C(Cl)Cl)c3ccccc3n2)cc1` here?
The Potency was active: 3.98 µM.

Which Potency does the source give for `CCOC(=O)c1c(-c2ccc(C)o2)csc1NC(=S)NC(=O)N(C)C` here?
The Potency was inconclusive: 39.8 µM [inhibitor, single point].
